Results as given in PubChem BioAssay AID1346428 (National Center for Advancing Translational Sciences (NCATS), 2018).
Screen size: about 48,000 compounds; about 1,200 (2.5%) were called active. Roughly 2% stayed inconclusive and do not appear here.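 Rule for the calls: active = activation of at least 60% and not above a set upper limit (about 1 call in 100 departs from these limits); inconclusive = activation of 40% to 60%, or above that upper limit; inactive = activation under 40%.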 The list shows a part of the results.

target: Probable G-protein coupled receptor 32 (Homo sapiens) (UniProt O75388); test: qHTS for Agonists of Human Resolvin D1 Receptor DRV1; conditions: CHO-K1 GPR32 beta-arrestin PathHunter luminescence, 90 min; at 76.9 µM; active compounds read high; zero percent set by DMSO-only wells; note: 0% is about no effect
Chain of UniProt O75388 (O75388 whole entry, looked up): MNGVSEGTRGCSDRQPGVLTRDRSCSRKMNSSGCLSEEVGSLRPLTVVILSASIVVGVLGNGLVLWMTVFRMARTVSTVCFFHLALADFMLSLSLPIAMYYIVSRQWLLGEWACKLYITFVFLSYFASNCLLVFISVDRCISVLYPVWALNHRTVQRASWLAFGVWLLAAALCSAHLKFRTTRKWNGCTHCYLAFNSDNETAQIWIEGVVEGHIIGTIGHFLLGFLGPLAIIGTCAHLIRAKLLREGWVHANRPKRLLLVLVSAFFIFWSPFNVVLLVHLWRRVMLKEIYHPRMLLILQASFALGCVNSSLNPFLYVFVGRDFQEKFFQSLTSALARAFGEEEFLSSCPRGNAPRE
How it was run: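 CHO-K1 cells stably expressing ProLink-tagged GPR32 and Enzyme Activator-tagged beta-arrestin were seeded at 2,500 cells/well overnight, exposed to compounds for 90 min at 37 °C, then read by beta-Gal complementation chemiluminescence after 1 h detection reagent.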

activation, inactive:
Cc1ccc(Nc2cc(C)nc3nncn23)c(C)c1 -4.95%
CCOc1ccc(-c2nc3ccccc3c(=O)o2)cc1 31.3%
O=C(C1CCC(Cn2c(=O)c3sccc3n(Cc3ccc(F)cc3)c2=O)CC1)N1CCOCC1 (stereo not given) -5.72%
O=c1[nH]c(C2CCCN(S(=O)(=O)c3ccccc3)C2)nc2c1nnn2Cc1ccc(OC(F)(F)F)cc1 (stereo not given) -1.44%
COc1ccc2c(c1)-c1nc(NC(=O)c3cc(OC)c(OC)c(OC)c3)sc1CC2 -15.5%
CN1C(=O)C2(c3ccccc31)N(c1ccc(Br)cc1)C(=O)CS2(=O)=O (stereo not given) -15.1%
CC(C)CCn1c(SCc2cccc(F)c2)nc2ccsc2c1=O -34.7%
Cc1cc(C)cc(Nc2nc3cc(Cl)c(Cl)cc3nc2-n2nc(C)cc2C)c1 4.77%
Cn1cc(-c2cc3n(n2)CCC(=O)N3CCCC(=O)NCc2ccccc2Cl)c2ccccc21 7.67%
CN1C(=O)c2[nH]nc(-c3ccc(F)cc3)c2C1c1cccc(O)c1 (stereo not given) -4.31%
CCc1ccc2oc(C(=O)NCc3ccccc3)cc(=O)c2c1 22%
COc1cccc(NC(=O)CSc2nc(O)c(C/C=C/c3ccccc3)c(=O)[nH]2)c1 4.58%
COc1ccc(N2CCN(S(=O)(=O)c3ccc(-c4cc(C(F)(F)F)on4)s3)CC2)cc1 -1.72%
Cc1ccc(CCNC(=O)c2sc3ncccc3c2-n2cccc2)cc1 -8.73%
COc1cc(NC(=O)c2nc3cc(C)c(C)cc3n(C)c2=O)cc(OC)c1OC 21.6%
Cc1cc(S(=O)(=O)Nc2cccc(-c3ccc(N4CCOCC4)nn3)c2)c(C)cc1Cl -8.54%
CCC(=O)Nc1cc(C(=O)NCc2ccc(C)cc2)ccc1S(=O)(=O)c1ccc(C)cc1 -27.1%
NCCC1CCCC(CCN)N1 (stereo not given) -7.89%
CCCC1O[C@@H]2C[C@H]3[C@@H]4CCC5=CC(=O)C=C[C@]5(C)[C@H]4[C@@H](O)C[C@]3(C)[C@]2(C(=O)CO)O1 (stereo not given in full) -12%
Cc1ccc(C)c(CN2C(=O)c3ccccc3Sc3ccc(C(=O)NCc4ccco4)cc32)c1 -22.2%
Cc1cccc(OCc2ccc(-c3nc(C#N)c(N4CCN(c5ccccc5)CC4)o3)o2)c1 -12.8%
Cc1cc(C)c2oc(C(=O)Nc3c(C(=O)c4ccc(F)cc4)oc4ccccc34)cc(=O)c2c1 -3.4%
CCc1cccc(C)c1Nc1c(-c2ccc(N(C)C)cc2)nc2ncccn12 -17.5%
CC1CCC(NC(=O)C2(C)Cc3ccccc3C(=O)N2Cc2ccccc2Cl)CC1 (stereo not given) -16.9%
Cc1cc(Cl)ccc1NC(=O)CCS(=O)(=O)c1cc2c(cc1C)NC(=O)CO2 -25.4%
CCN(CC)c1ccc(NC(=O)Cn2c(C)c3cnn(-c4ccccc4)c(=O)c3c2C)c(C)c1 -16.9%
COC(=O)c1c(-c2cccs2)csc1NC(=O)c1cc(OC)cc(OC)c1 -6.59%
O=C(NCCSc1c(-c2ccc(Br)cc2)[nH]c2ccccc12)c1ccc(S(=O)(=O)N2CCOCC2)cc1 -10.7%
Cc1ccc(CNC(=O)C(CC(C)C)N2Cc3ccccc3C2=O)cc1 (stereo not given) -9.48%
Cc1cc(C)cc(NC(=O)C(Cc2ccccc2)N2Cc3ccccc3C2=O)c1 (stereo not given) -22.4%
CCNC(=O)CCSc1nnc(-c2ccc(O)cc2)o1 42.7%
COc1cccc(CNC(=O)Nc2cc(C(=O)NCc3cccc(F)c3)ccc2N2CCCC2)c1 -27.4%
CCC(Oc1ccc(F)cc1)C(=O)Nc1cc(-c2ccc(C)cc2)no1 (stereo not given) -16.8%
CCOc1cc(CNC(=O)c2ccc(NC(=O)c3nsc4ccccc34)cc2)ccc1OC -13.7%
CCN(CC)c1ccc(NC(=O)c2cc(CN3CCCC3)on2)c(C)c1 -12.3%
Cn1c(=O)c2ccccc2n2c(CCC(=O)N3CCN(c4cccc(Cl)c4)CC3)nnc12 -2.84%
CCOc1ccc(NC(=O)CC2C(=O)N(c3cccc(OC)c3)C(=O)N2C2CCCCC2)cc1 (stereo not given) -4.73%
Cc1cccc(NC(=O)CSc2nc(-c3cccs3)cc(C(F)(F)F)c2C#N)c1 -1.55%
CCN1CCN(c2csc3ccc(Cl)cc3c2=O)CC1 -33.1%
COc1ccc2c(C)c(CC(=O)NCCc3ccccc3)c(=O)oc2c1OC -1.53%
Cc1cc(C)cc(N2C(=O)CC(c3ccc(C(F)(F)F)cc3)C3=C2COC3=O)c1 (stereo not given) -3.68%
COc1ccccc1C(=O)Nc1cc(-c2cccc(Br)c2)nn1-c1ccccc1 -4.69%
COc1ccc(Cl)cc1NC(=O)C(C)n1nnc2sc3c(c2c1=O)CCCC3 (stereo not given) -12.1%
CCOc1ccc(NC(=O)Cn2nnc(C(=O)OC)c2C(=O)OC)cc1 11.4%
Cc1ccc(C(=O)NCC(=O)OCc2cc(=O)n3nc(C4CCCCC4)sc3n2)cc1 -4.73%
CCCCn1c(Oc2cccc(C(=O)OC)c2)nc2c1c(=O)n(C)c(=O)n2C -15.4%
COc1ccc(Cn2c(SCC(=O)NCc3ccccc3)nc3ccccc32)cc1 3.57%
Cc1ccc2c(c1)C(c1ccc(F)cc1)N(C(=O)C(C)C)CC(=O)N2 (stereo not given) 1.01%
COc1ccc(C(=O)NC2(C(F)(F)F)C(=O)NC(C)=C2C#N)cc1 (stereo not given) 3.43%
O=c1oc2ccc3ccccc3c2cc1-c1nnc(Nc2ccccc2)s1 -3.32%
CCc1cccc(NC(=O)Cn2nc(CC)n3c(cc4cc(C)ccc43)c2=O)c1 13%
CCCN(C(=O)CCn1cnc2onc(-c3ccc(F)cc3)c2c1=O)c1ccccc1C -8.4%
Cc1cc(C)cc(C(=O)Nc2c3c(nn2-c2ccccc2C)CS(=O)(=O)C3)c1 -3.03%
Cc1ccc(Cl)cc1N1CCN(C(=O)Cn2nc(C)n3c(cc4sccc43)c2=O)CC1 -0.301%
CCOC(=O)c1c(-c2ccccc2)csc1NC(=O)c1cc(-c2cccc(OC)c2)on1 -6.54%
O=C(Cn1nc2c(cc1=O)CCCC2)NCc1ccccc1Cl -6.36%
Cc1ccc(C(=O)Nc2nnc(SCc3cc(=O)n4ccc(C)cc4n3)s2)cc1 2.83%
CCC(=O)N1c2nc(C(C)C)nn2C2(CCCCC2)[C@@H]2CCCC[C@@H]21 -11%
Cc1cc(C)cc(NC(=O)Cn2nnc(C(=O)NCc3ccco3)c2N)c1 28.1%
O=C(CN1C(=O)COc2ccc(S(=O)(=O)N3CCCCCC3)cc21)N1CCN(c2ccccc2)CC1 -11.6%
COc1ccc(Cl)cc1NC(=O)C(C)N1Cc2ccccc2C1=O (stereo not given) -10.5%
COc1ccc(NC(=O)CN2CCN(S(=O)(=O)c3ccc(Br)cc3)CC2)cc1 -29.5%
CCOC(=O)c1cccc(NC(=O)C2CCN(c3nnc(C)c4c(C)n(-c5ccccc5)nc34)CC2)c1 7.9%
COCCNC(=O)Cn1c(=O)n(-c2ccc(C)c(C)c2)c(=O)c2c3c(sc21)CCCCC3 -8.15%
O=C(NNc1ncnc2c1cnn2-c1ccccc1)c1ccccc1 -23.7%
COc1ccc(NCc2cccn2-c2nnc(N3CCOCC3)s2)c(OC)c1 23.8%
CCOc1cc(CNC(=O)C(NS(=O)(=O)c2cccs2)C(C)C)cc(OCC)c1OCC (stereo not given) -3.98%
O=C(Cn1c(SCc2cccc(F)c2)nc2ccncc21)Nc1ccc(Cl)cc1F 0.748%
COc1ccc(N2CCN(S(=O)(=O)CCNC(=O)Cc3ccc(-c4ccccc4)cc3)CC2)cc1 -14.9%
CCCc1oc2ccc(NS(=O)(=O)c3ccc(OC)cc3)cc2c1C(=O)OCC -16.9%
COc1ccc(C(=O)Nc2ccc3nc(N4CCCCC4)cc(C)c3c2)c(OC)c1 3.22%
CCOC(=O)c1c(NC(C)=O)c2c3c(sc2n1Cc1cccc(Cl)c1)CCCC3 -28.8%
Cc1ccc(C(CC(=O)Nc2ccc(C)cc2C)N2Cc3ccccc3C2=O)cc1 (stereo not given) -4.35%
CCOc1ccccc1CNC(=O)c1cccc(NC(=O)c2nsc3ccccc23)c1 -10.3%
Cc1ccc(-n2c(=O)c3sccc3n(Cc3cc(=O)n4ccccc4n3)c2=O)cc1 -10.2%
COc1ccc(C(=O)N2CCC(C(=O)Nc3ccc(OC)cc3OC)CC2)cc1 11.5%
CCN(C(=O)Cn1nc(Cc2cccnc2)c2ccccc2c1=O)c1cc(C)ccc1C -44.1%
Cc1ccccc1C(=O)Nc1nnc(S(=O)(=O)N2CCCc3ccccc32)s1 16.3%
Cc1cccc(-c2cc(NC(=O)COc3ccccc3F)n(-c3ccccc3)n2)c1 -7.42%
Cc1nnsc1C(=O)Oc1ccccc1Cl 5.01%
O=C1C(c2ccc(C(F)(F)F)cc2)=C(Nc2ccc(Cl)cc2)c2ccccc21 -14.4%
Cc1ccc(NC(=O)CSc2nnc(-c3cc4occc4n3C)n2-c2ccccc2C)cc1F -26.2%
CCn1c(C(=O)Nc2cc(C)cc(C)c2)cc2sc(Cl)cc21 -1.87%
COc1ccc(C(=O)N=c2sc3cc(Cl)ccc3n2C)cc1 9.77%
Cc1ccc(-c2cn3c4c(=O)n(C)c(=O)n(C)c4nc3n2-c2cccc(Cl)c2)cc1 -0.72%
